According to ChEMBL document CHEMBL4888484, “Replenishing the malaria drug discovery pipeline: Screening and hit evaluation of the MMV Hit Generation Library 1 (HGL1) against asexual blood stage Plasmodium falciparum ,using a nano luciferase reporter read-out” (2022):
The campaign covered roughly 150,000 compounds. About 540 (0.36%) showed an effect of 50% or more. This is one part of the list.

tested on: Plasmodium falciparum; assay: Primary screen in NF54 nanoGlo assay, in single point, at 2uM, 72h; a lower Z score goes with more inhibition; type: functional, Erythrocyte; conditions: timepoint 72 hour

Compound	% Inhibition	Z score
O=C(NC1CC1)c1ccc(S(=O)(=O)NC[C@H](O)c2ccccc2)cc1	-15%	2.64
CCc1nc2ccccc2c(C(=O)N2CCN(c3cc(OC)ncn3)CC2)c1C	-13%	1.69
CC(C)[C@@H]1NC(=O)N(Cc2nccn2CC(F)(F)F)C1=O	3%	-0.4
CC(=O)N1C[C@]23C=C[C@H](C[C@H]2CC12CCCCC2)O3	-8%	1.03
Cc1ccc(NC(=O)N[C@@H](C(C)(C)C)C(F)(F)F)cc1	2%	-0.25
C=Cn1cc(CN2CC[S+]([O-])CC(C)C2)cn1 (configuration not stated)	2%	-0.24
CCN(C(=O)c1ccnc(C2CC2)c1)[C@@H](C)CS(C)(=O)=O	-4%	0.89
Cc1cc(-c2cccc(C(=O)N3CCN(CCO)CC3)c2)nc(C)c1C#N	-8%	0.85
Cc1cc(C(=O)NCC[C@H](O)c2ccco2)no1	-5%	0.82
CCOC(=O)N1CCN(C(=O)Cn2nc(C3CC3)ccc2=O)CC1	5%	-0.6
NC(=O)C[C@H](NC(=O)NCc1ccco1)C1CCOCC1	-4%	0.61
Cc1ccc(C(=O)NC2(C(F)F)CC2)cn1	10%	-1
CCOc1cc(N(C)Cc2c(C)noc2C)ncn1	-7%	0.77
CC1CC(C)C(C)N(S(=O)(=O)c2ccco2)C1 (configuration not stated)	-8%	0.97
COc1ccc(S(=O)(=O)NC[C@H]2O[C@@H](CO)[C@@H](O)[C@H]2N(C)Cc2ccccc2)cc1	-3%	0.35
C[C@H]1[C@@H](C(F)(F)F)OCCN1C(=O)c1ccc(C2CC2)nc1O	-13%	2.5
Cn1ccnc1CN(CCO)C(=O)Cc1cccnc1	-8%	1.1
N#Cc1c(N)nc2c(c1-c1cccc(O)c1)CCc1[nH]ccc1-2	-13%	1.45
Cc1ccc(O)c(S(=O)(=O)N2CCN(C(=O)NC3CCN(c4ccc(C#N)cc4)CC3)CC2)c1	-10%	1.14
CC(C)OCC(O)CN(Cc1cccc(F)c1)CC1CC(c2ccccc2)=NO1 (configuration not stated)	5%	-0.49
CCN(C)C1(CNC(=O)c2ccncc2Cl)CCCC1	3%	-0.33
O=C(CCNC(=O)C1CCCC1)NC1CC1	-20%	1.88

Compound	% Inhibition	Z score
CC(C)c1nc(-c2noc(-c3ncn(C(C)(C)C)n3)n2)cs1	4%	-0.84
CC(c1ccc(Cl)cc1)C(C)N(C)C(=O)NCCS(C)(=O)=O (configuration not stated)	-5%	0.48
OC1(c2ccc(-c3ccccc3)cc2)CCNCC1	-12%	1.7
CC(=O)Nc1cc(NCc2nc(C)cs2)ccc1Cl	-8%	0.82
O[C@@H](Cn1nnnc1CCCc1ccccc1)C(F)(F)F	-4%	0.75
CCc1noc(C)c1CNC(=O)N1CCS(=O)(=O)C[C@H]1C1CCC1	-12%	2.29
O=C(C1CC1C1CCC1)N1CCC12CCC2 (configuration not stated)	-2%	0.18
O=S1(=O)CCN(Cc2noc(-c3ccco3)n2)CC1	-2%	0.25
Cc1nc(C(=O)NC(C)C(=O)N2c3ccccc3CC2C)c(C)o1 (configuration not stated)	-13%	1.85
C[C@H]1CCCCN1Cc1ncnn1-c1cc(S(N)(=O)=O)ccc1F	-1%	0.23
O=C(Cc1cccs1)N1CC[C@H](Oc2ncc(F)cn2)C1	-13%	2.02
Cc1noc(C)c1CCC(=O)N1CCC[C@H](c2cc3n(n2)CCCN(C)C3=O)C1	-6%	1.16
Cc1cccc(CNC(=O)[C@H](C)Oc2ccc(=O)n(-c3cc(Cl)ccc3C)n2)c1	-13%	2.01
O=C(c1ccco1)N1CCC(n2ccnc2-c2ccccn2)CC1	-8%	0.82
Cc1nc(N2CCN(C)CC2)ncc1-c1cc(=O)[nH]c(N2CCN(c3ccccc3)CC2)n1	-8%	1.16
CCc1c(C)nn(CC(=O)Nc2ccc(OC)c3nonc23)c1C	0%	-0.01
CC(Cn1cccn1)NC(=O)C1CC1c1ccc(Br)cc1 (configuration not stated)	-1%	0.08
O=C(NCC(F)(F)F)Nc1ccccc1N1CC2CCC1C2 (configuration not stated)	-3%	0.59
O=C(CCS(=O)(=O)c1ccccc1)N1CCC(c2nnc(-c3ccc(F)cc3)o2)CC1	14%	-1.9
Cc1ccc(S(=O)(=O)c2c(C)c(C)n(CC(C)C)c2NC(=O)c2ccccc2F)cc1	-10%	1.91
Cc1cc2c(cc1NC(=O)NC1CCCC1)N(C)S(=O)(=O)N2C	-5%	0.54
CC(C)=CCN1C[C@@H]2CC[C@H]1CN(C(=O)c1ccc3[nH]c(C)c(C)c3c1)C2	2%	-0.34

Compound	% Inhibition	Z score
Cc1sc(NS(=O)(=O)c2ccccc2)nc1C(=O)N1CCN(S(C)(=O)=O)CC1	-13%	1.88
c1cc2c(cc1CC1CCNCC1)OCCO2	6%	-0.84
Clc1ccc(OCc2nc3ccccc3s2)c(C2CCCCC2)c1	-11%	1.43
O=C(c1cscn1)N1CCO[C@H]2CCC[C@H]21	27%	-3.84
CC[C@]1(O)CCCN(c2nc(C)c(C)cc2C(N)=O)C1	-11%	1.42
Cc1sc2nc(CN3CCC(C)CC3)nc(N3CCC(N(C)C(C)C)CC3)c2c1C	-3%	0.66
O=C(N[C@H](c1ccccc1)C(F)F)N1CCC2(C=Cc3ccccc3O2)CC1	-7%	0.81
c1cnc(N2CCC(c3nnc4n3CCCC4)CC2)nc1	-6%	0.99
CCc1nnsc1C(=O)Nc1cccc(S(=O)(=O)N2CCCCC2)c1	7%	-1.32
COc1cc2c(cc1OC)CN(C(=O)C1CC1C)CC2 (configuration not stated)	-4%	0.46
CC(NC1C=CCCCCC1)c1cnn(C)c1 (configuration not stated)	-3%	0.3
Cc1cc(C)n(-c2ccc(CC(=O)NCC3CCCCC3)cc2)n1	-18%	2.77
CC(C)(C(=O)Cn1cnc2c(-c3ccccc3)nsc2c1=O)c1ccccc1	-1%	0.1
O=C(c1ccc2nccnc2c1)N1CC[C@H](n2ccnn2)C1	-11%	1.42
c1ccc(C(c2ccccc2)n2c(-c3nc4ccccc4o3)nc3ccccc32)cc1	-1%	0.21
CC1(C)CC(Nc2ncnc3ccc(F)cc23)CC(C)(C)N1	-1%	0.17
C#CCN(CCCCC#N)Cc1cccc(C)n1	-11%	1.57
CNC(=O)c1ccc(NC2CC3CC3C2)nn1 (configuration not stated)	6%	-0.99
Cc1n[nH]c(C)c1CCCN(C)C(=O)c1cn2cccnc2n1	4%	-0.72
COCc1cc(O)nc(N2CC[C@H](NC(=O)OCCF)C2)n1	-10%	1.3
CCN(CC(=O)Nc1ccc(NC(C)=O)cc1)C(=O)c1ccc2c(c1)C(=O)N(c1ccccc1Cl)C2=O	7%	-1.25
Cc1c[nH]c(C(=O)N(C)C[C@H](C)N2CCOCC2)n1	-16%	2.07

Compound	% Inhibition	Z score
Fc1ccc(-c2nn(Cn3cc(Cl)cn3)c(-c3ccc(F)cc3)c2Cl)cc1	29%	-3.28
O=C(c1cc2c(s1)CCCC2)N1CCS(=O)(=O)CC1	-6%	0.63
CCN(CC(N)=O)C(=O)c1sccc1C	-10%	1.73
COc1cccc2ncn([C@@H](C)CN3CCCC3)c(=O)c12	6%	-0.76
CCc1nc(C)sc1C(=O)N1CCC2(CC1)C(=O)NC(=O)N2CC	-3%	0.49
Cc1cc2ncc3c(n2n1)CCN(C(=O)c1cccn(C)c1=O)C3	-8%	1.28
Cc1ccc(=O)n(Cc2ncnn2CCc2ccccc2)n1	1%	-0.07
COCCCNc1c(-c2cccc(F)c2)nc2sc(C(=O)N3CCN(C)CC3)c(C)n12	-8%	1.43
O=C(O)C1CCC(NCC2(c3cccc(Cl)c3)CCCCC2)CC1 (configuration not stated)	-5%	0.64
CCN1CCC[C@@H]1CNC(=O)c1cccc(-c2cc(F)ccc2C(C)=O)c1	-6%	0.9
CCOc1cc(CN(Cc2ccccc2C)[C@@H](C)COC)ccc1OCCn1ccnc1	0%	-0.03
C[C@@H](CO)N(C)S(=O)(=O)[C@H]1C[C@@H]1c1ccc(Br)cc1	1%	-0.19
O=C(Nc1ccc(OCc2ccccc2)cc1)c1ncn(C[C@H](O)c2ccc(F)cc2)n1	-7%	0.76
CC(=O)NCC(=O)NC1(C(=O)NC2CCCC2)CCCCC1	1%	-0.18
CCN1CCc2ncnc(N3CCCN(C)CC3)c2C1	3%	-0.42
CCn1nc(CNC(=O)[C@]2(C)CCCO2)c2ccccc21	-15%	1.92
O=C(Cc1cc(F)c(F)cc1F)Nc1nc(C2CC2)n[nH]1	-10%	1.08
Cc1cc(C)cc(NC(=O)C2CCN(S(=O)(=O)c3cc(-c4noc(C)n4)ccc3Cl)CC2)c1	-10%	1.34
CC(C)(C)c1ccc(C2=Nc3ccc(F)cc3C(c3ccccc3)=NN2)cc1	-26%	3.04
Cc1n[nH]c(CN2CCC(OCc3cccnc3)CC2)c1Cl	-10%	1.45
